Source: PubChem BioAssay AID488969 (Vanderbilt High Throughput Screening Facility, 2010)
Several values for one entry are separate records, joined by “and”; a condition that tells them apart may be missing. Equal entries are not always repeated. In all, about 110,000 compounds were measured (“z-score”: median about -0.1, highest 2% from about 2 on). Some of the results follow.

What follows are molecules tested against Metabotropic glutamate receptor 8 (Rattus norvegicus) (UniProt P70579) (assay: mGluR8 Gi/Go-coupled signaling modulation – cell-based, rat, thallium flux, HTS, primary screen (AID 488969)). Settings: HEK293 rat mGluR8, GIRK (G protein-gated inwardly rectifying potassium channel) thallium flux, FluoZin2; at 10 µM; stronger effect = higher value; submaximal glutamate (EC20) added with thallium.
Chain of UniProt P70579 (P70579 whole entry, looked up): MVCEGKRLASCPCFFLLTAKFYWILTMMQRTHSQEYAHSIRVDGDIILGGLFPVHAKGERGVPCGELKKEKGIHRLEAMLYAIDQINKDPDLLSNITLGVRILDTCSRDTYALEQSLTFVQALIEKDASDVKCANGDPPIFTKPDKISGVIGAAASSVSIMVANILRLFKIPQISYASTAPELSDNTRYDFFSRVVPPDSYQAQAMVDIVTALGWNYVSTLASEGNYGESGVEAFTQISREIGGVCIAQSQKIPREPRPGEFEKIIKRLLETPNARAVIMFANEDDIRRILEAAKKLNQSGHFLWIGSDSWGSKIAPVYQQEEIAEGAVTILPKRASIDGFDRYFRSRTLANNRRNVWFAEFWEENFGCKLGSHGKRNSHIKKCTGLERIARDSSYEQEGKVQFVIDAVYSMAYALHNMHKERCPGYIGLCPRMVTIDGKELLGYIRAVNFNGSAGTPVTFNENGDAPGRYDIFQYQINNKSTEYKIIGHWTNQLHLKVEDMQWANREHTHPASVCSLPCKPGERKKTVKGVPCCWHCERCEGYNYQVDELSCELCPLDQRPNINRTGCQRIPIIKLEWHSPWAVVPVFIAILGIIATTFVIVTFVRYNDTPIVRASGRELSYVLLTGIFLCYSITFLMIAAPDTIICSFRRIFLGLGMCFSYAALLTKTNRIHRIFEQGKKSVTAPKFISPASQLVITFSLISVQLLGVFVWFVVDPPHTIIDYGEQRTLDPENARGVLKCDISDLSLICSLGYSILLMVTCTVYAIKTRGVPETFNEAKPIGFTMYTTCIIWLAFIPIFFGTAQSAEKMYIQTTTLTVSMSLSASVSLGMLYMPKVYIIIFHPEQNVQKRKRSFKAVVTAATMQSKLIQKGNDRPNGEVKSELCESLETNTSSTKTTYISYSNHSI

Compared with `Cc1cc(C)cc(N(C(=O)CNC(=O)c2cccs2)C(C(=O)NC2CCCC2)c2cccnc2)c1` (stereo not drawn), `CCOC(=O)CNC(=O)c1ccc2[nH]c3c(c2c1)CCCC3` is lower in z-score: -0.102 for the first, -0.279 for the second.

Going from `CC1CCN(Cc2nnnn2-c2cccc([N+](=O)[O-])c2)CC1` to `O=C(Cn1nnc(-c2ccc(CN3CCOCC3)cc2)n1)NC1CCCCC1`, the z-score rises from -0.243 to -0.106.

Compared with `CCN(Cc1ccccc1)C(=O)CN1C(=S)NC(C)(C)CC1C` (stereo not drawn), `CC1(C)CNC(=O)C=C(c2ccccc2)C1` is lower in z-score: -0.0723 for the first, -0.176 for the second.

Compared with `O=C(CCSc1nnc(-c2ccncc2)o1)Nc1ccc(Cl)cc1`, `Cc1ccc(-c2nnc(Cc3ccc(Cl)cc3)o2)cc1` is higher in z-score: -1.35 for the first, -0.239 for the second.

First: CCOC(=O)C1CCCN(c2ncnc3c2oc2ccccc23)C1 (stereo not drawn)
Second: CCOC(=O)c1oc2ccccc2c1NC(=O)COc1ccc(F)cc1
The z-score of the first is lower: -0.619 for the first, -0.456 for the second.

Going from `CC(C)C(=O)Nc1cccc(-c2cn3ccccc3n2)c1` to `COc1cccc(NC(=O)N(Cc2ccco2)C(C)c2cccs2)c1` (stereo not drawn), the z-score rises from -0.552 to -0.441.

Going from `CCCSC1=C(C#N)C(c2cccnc2)C(C(=O)OCC)=C(c2ccccc2)N1` (stereo not drawn) to `CCOC(=O)C1=C(C)NC(=O)NC1c1cccnc1` (stereo not drawn), the z-score rises from -0.449 to 0.62.

Compared with `COc1ccc(CCCC(=O)N/N=C/c2cccc(OC)c2O)cc1C`, `COc1cc(/C=N/S(=O)(=O)CCc2ccccc2)cc(OC)c1O` is lower in z-score: -0.351 for the first, -0.399 for the second.

Compared with `COc1ccc(/C=N/Nc2ncnc3c2[nH]c2ccccc23)c(OC)c1OC`, `COc1ccc(/C=N/Nc2nc(Nc3ccccc3)nc(N3CCCCC3)n2)c(OC)c1` is higher in z-score: -0.119 for the first, 0.74 for the second.

Going from `COC(=O)c1ccc(NC(=S)NCCc2cccc(C)c2)cc1` to `CCCCNC(=S)Nc1ccc(Cl)cc1`, the z-score rises from -0.0498 to 1.73.

First: COc1ccc(-c2c[n+]3c4n2CCCCC4=C(c2ccc(Br)cc2)C3)cc1
Second: COc1ccc(/C=C2\Sc3ccc(C(=O)N4CCc5ccccc5C4)cc3N(C)C2=O)cc1
The z-score of the first is higher: 1.54 for the first, -0.13 for the second.

First: COc1cc(OC)c(C2=NOC(C(=O)Nc3c(C)nn(CC(=O)N4CCCC4)c3C)C2)cc1Cl (stereo not drawn)
Second: COc1cccc(OC)c1C(=O)Nc1cc(Cl)ccc1N1CCOCC1
The z-score of the first is lower: -0.14 for the first, 0.304 for the second.

Compared with `O=S1(=O)C=C(SCCN2CCCC2)c2ccccc21`, `COc1ccccc1NC(=O)N(CCN1CCCC1)Cc1cc2cc(C)ccc2[nH]c1=O` is higher in z-score: -0.196 for the first, -0.065 for the second.

Going from `COC(=O)C1(Cc2ccccc2)NC(c2ccc(F)cc2)C2C(=O)N(C)C(=O)C21` (stereo not drawn) to `O=C(CC1N=C2c3ccccc3N=C(SCc3ccc(F)cc3)N2C1=O)NCc1ccco1` (stereo not drawn), the z-score falls from 0.233 to -0.245.

Going from `Cc1cccc(C)c1NC(=O)CCCSc1nnc(-c2ccc(F)cc2)n1-c1ccccc1` to `CCC(C)NC(=O)CSc1nnc(-c2cc(-c3ccc(C)cc3)nc3ccccc23)n1N` (stereo not drawn), the z-score falls from -0.0409 to -0.28.

First: O=C(CNC1CCCCC1)N1CCc2ccccc2C1
Second: COc1ccc(CNC2CCCC2)c(OC)c1OC
The z-score of the first is higher: 0.0605 for the first, -0.0468 for the second.

Compared with `COc1cccc2c1C(=O)CC2NC(=O)C(F)(F)F` (stereo not drawn), `CC(=O)C1C(c2ccccc2Cl)NC(=O)NC1(O)C(F)(F)F` (stereo not drawn) is higher in z-score: 0.032 for the first, 1.98 for the second.

First: CCn1nc(NC(=O)c2cccnc2)c2cc3cccc(C)c3nc21
Second: CCOC(=O)c1cc2c(=O)n3ccccc3nc2n(C(C)C)c1=NC(=O)c1ccncc1
The z-score of the first is higher: -0.0388 for the first, -0.585 for the second.

Compared with `NC(=O)C1CC(=O)N(Cc2ccc3c(c2)OCO3)C(=Nc2ccccc2)S1` (stereo not drawn), `COc1ccc(CCNC(=O)C2(C)CCC(=O)N2Cc2ccc3c(c2)OCO3)cc1OC` (stereo not drawn) is higher in z-score: 0.252 for the first, 0.595 for the second.

Compared with `N#CC1=C(N)S[C@@H](C(=O)c2ccc(F)cc2)[C@@H]1c1cccs1`, `O=C(NCc1ccccn1)C1CC(c2ccc(F)cc2)=NO1` (stereo not drawn) is higher in z-score: -0.589 for the first, 0.284 for the second.

Going from `O=S(=O)(c1ccccc1)c1nc(-c2ccco2)oc1N1CCOCC1` to `N#Cc1nc(-c2ccco2)oc1NCCN1CCOCC1`, the z-score falls from 0.143 to -0.639.

Compared with `O=C(Nc1ccc(O)cc1C(=O)O)c1ccc2c(c1)C(=O)N(Cc1ccco1)C2=O`, `COc1ccc(NC(=O)COC(=O)c2ccc(OCc3ccc(Cl)cc3Cl)c(OC)c2)c(OC)c1` is higher in z-score: -0.74 for the first, -0.225 for the second.

Going from `CCn1c(C)c(/C=N/Nc2nc3ccccc3s2)c2ccccc21` to `CCC/C=N/NC(=O)c1cc(-c2ccccc2)nc2ccccc12`, the z-score falls from 0.741 to -0.317.

Going from `Cc1nn(C)cc1/C=N/NC(=O)C1(O)c2ccccc2-c2ccccc21` to `CN1C(=O)c2ccccc2C(C(=O)NCC2CCCO2)C1c1c[nH]c2ccccc12` (stereo not drawn), the z-score falls from -0.297 to -1.14.

Going from `O=c1c(Cl)nc2cc(Cl)ccc2n1CCNc1ncc(C(F)(F)F)cc1Cl` to `Cc1nc2c3cc(F)ccc3n(Cc3ccccc3F)c2s1`, the z-score falls from 0.248 to 0.00664.

First: Cc1ccc(S(=O)(=O)C(C#N)c2nc3ccccc3nc2N2CCN(C)CC2)cc1C (stereo not drawn)
Second: Cc1cc(C)c2c(C)nn(-c3ccccc3)c2n1
The z-score of the first is lower: -0.43 for the first, -0.275 for the second.

Compared with `CC(C)CNC(CC(=O)Nc1cccc([N+](=O)[O-])c1)C(=O)O` (stereo not drawn), `CC(C)N(C(=O)c1sc2cc([N+](=O)[O-])ccc2c1Cl)C(C)C` is lower in z-score: -0.184 for the first, -0.641 for the second.

First: O=C(c1ccco1)N1CCN=C1SCc1cccc(F)c1
Second: O=C(/C=C/Nc1ccc(F)c(Cl)c1)c1ccco1
The z-score of the first is lower: -0.38 for the first, 0.442 for the second.

First: COc1cc2[nH]c(=S)n(NC(=O)CC(C)C)c(=O)c2cc1OC
Second: COc1ccc2c(c1OC)CCC2=O
The z-score of the first is lower: -0.0233 for the first, 0.544 for the second.

First: Cc1ccc(-n2nc(C(=O)O)nc2-c2ccccc2)cc1
Second: CCCc1cc(C(=O)Nc2cc(C)nn2-c2ccccc2)no1
The z-score of the first is higher: -0.106 for the first, -0.702 for the second.

Going from `O=C(CN1CCN(Cc2ccc3c(c2)OCO3)CC1)Nc1ccc2c(c1)OCCO2` to `CCOc1c2ccc(C(=O)NCc3ccc4c(c3)OCO4)cc2nn1CCOC`, the z-score falls from 0.156 to -0.276.

Compared with `c1ccc(Cc2nc3ccccc3n2Cc2ccccc2)cc1`, `O=S(=O)(/N=C(/Nc1cccc2ccccc12)c1ccccc1)c1cccs1` is higher in z-score: -0.536 for the first, -0.224 for the second.

Compared with `O=C(/C=C/c1cccs1)Nc1ccc(Br)cn1`, `O=C(Nc1ccccc1)c1ccn[nH]1` is higher in z-score: -0.222 for the first, 0.112 for the second.

First: CCc1ccccc1S(=O)(=O)Cc1ccc(C(=O)NC(C)C)o1
Second: COc1ccccc1N(CC(=O)Nc1ccccc1C(=O)NCC(C)C)S(C)(=O)=O
The z-score of the first is lower: -0.288 for the first, -0.18 for the second.

First: COc1ccc(N=c2ssnc2Cl)cc1
Second: COc1c(Cl)cnn(-c2ccccc2)c1=O
The z-score of the first is lower: -0.257 for the first, -0.114 for the second.

Going from `CCC(C)Sc1nc2c([nH]c3ccccc32)c(=O)n1C` (stereo not drawn) to `CSc1ccccc1NC(=O)c1cc(C)on1`, the z-score rises from -0.538 to -0.0358.

Going from `Cn1c(SCC(=O)OCc2ccccc2)nnc1-c1ccco1` to `O=C(CCC(=O)OCc1ccc(Br)cc1)Nc1ccccc1`, the z-score rises from -0.775 to -0.0471.

Compared with `O=C(CN1CCN(S(=O)(=O)c2ccc(Br)cc2)CC1)N/N=C/c1cccnc1`, `C(=N\N1CCN(Cc2cccc3ccccc23)CC1)/c1cccnc1` is lower in z-score: -0.15 for the first, -0.607 for the second.

First: CC(C)NC(=O)CSCc1ccccc1Cl
Second: Nc1ccc(Sc2ccccc2CC(=O)O)cc1
The z-score of the first is lower: 0.666 for the first, 1.21 for the second.

Compared with `O=C(NCCS(=O)CCNC(=O)C(F)(F)F)C(F)(F)F`, `O=C(CNC(=O)c1ccccc1)NCC(=O)OCc1ccc(Cl)cc1` is lower in z-score: 0.174 for the first, -0.177 for the second.

Compared with `CCn1cc(NC(=O)Nc2ccccc2C(=O)OC)c(C(N)=O)n1`, `Cc1ccc(NC(=O)NC(=O)CSc2nnc(-c3ccc(OC(F)F)cc3)n2N)c(C)c1` is lower in z-score: 0.315 for the first, -1.61 for the second.

Going from `CN(C)c1cc[n+](Cc2c(Cl)cccc2Cl)cc1` to `Cc1cc2c(c(=O)n1CCN(C)C)C(c1ccc(Cl)cc1)C(C#N)=C(N)O2` (stereo not drawn), the z-score falls from 0.00132 to -1.32.

Going from `CNc1nc(Nc2ccc(Br)cc2)nc(N)c1[N+](=O)[O-]` to `Cn1cnc([N+](=O)[O-])c1Nc1cccc(O)c1`, the z-score rises from -0.169 to -0.162.

First: CCC(CC)n1[nH]c(=O)c2c(C)cc(C)nc21
Second: Cc1nnc(C)c2c(C)n(Cc3ccc4c(c3)OCO4)c(C)c12
The z-score of the first is higher: 0.0952 for the first, -0.126 for the second.

Compared with `CC(C)(C)NC(=O)/C(=C\c1ccco1)NC(=O)c1cccs1`, `Cc1ccccc1NC(=O)c1sc2nc3c(c(-c4ccco4)c2c1N)CCC3` is lower in z-score: -0.374 for the first, -0.383 for the second.

First: CCN1C(=O)C(O)(CC(=O)c2ccccn2)c2ccccc21 (stereo not drawn)
Second: CC(C)C1Oc2ccccc2N(CC(=O)N(Cc2ccccn2)C2CC2)C1=O (stereo not drawn)
The z-score of the first is higher: 0.569 for the first, 0.521 for the second.

Compared with `CCN(CC)S(=O)(=O)c1ccc(NC(=O)COC(=O)c2ccc(-n3nc(C)cc3C)cc2)cc1`, `CC(=O)NCC(=O)OCC(=O)c1ccc(Br)cc1` is lower in z-score: 0.0126 for the first, -0.187 for the second.

Compared with `COc1cccc(C(NC(=O)c2ccccc2F)NC(=O)c2ccccc2F)c1`, `O=C(COc1ccccc1)Nc1ccc(OC(F)(F)C(F)F)c(NC(=O)COc2ccccc2)c1` is higher in z-score: -0.377 for the first, -0.29 for the second.

Going from `O=C(O)C1C2C=CC(C2)C1C(=O)Nc1cccc(C(=O)N2CCCCC2)c1` (stereo not drawn) to `CCC12CN3CCN(CC(C3)/C1=N\NC(=O)Nc1ccccc1)C2`, the z-score rises from -0.321 to -0.0852.

Compared with `CC(=O)c1c(O)cc2n(c1=O)-c1ccc(Cl)cc1C2(C)C`, `Cc1csc(NC(=O)COc2ccc3c(C)cc(=O)oc3c2)n1` is higher in z-score: -1.61 for the first, -0.415 for the second.

Compared with `CCCCOC(=O)CSc1nc2c(cc1C#N)C(=O)CC(C)(C)C2`, `CCC(=O)N1CCN(CCN=CC2=C(O)CC(C)(C)CC2=O)CC1` is higher in z-score: -1.74 for the first, -0.167 for the second.

Going from `Cc1nc(CNS(=O)(=O)c2cccnc2)cs1` to `CCc1c(C(=O)Nc2ccncc2)csc1C`, the z-score falls from 0.571 to 0.523.

First: COc1ccc(/C=C(\C#N)C(=O)N2CCOCC2)cc1Br
Second: COc1cc(C)c(Cl)cc1S(=O)(=O)NCCCN1CCOCC1
The z-score of the first is lower: -0.62 for the first, -0.146 for the second.

First: CCCCn1c(SCC(=O)NCc2ccco2)nc2cc(S(N)(=O)=O)ccc21
Second: O=C(CSc1ncn[nH]1)N1N=C2/C(=C/c3ccccc3)CCCC2C1c1ccccc1 (stereo not drawn)
The z-score of the first is lower: -0.285 for the first, 0.219 for the second.

Compared with `CC1CN(CC(O)COC(c2ccc(Cl)cc2)c2ccc(Cl)cc2)CC(C)O1` (stereo not drawn), `COc1cc(OC)nc(N/N=C(\c2ccccc2)c2ccncc2)n1` is lower in z-score: -0.138 for the first, -0.317 for the second.

Going from `Cc1ccccc1-n1c(SCc2csc(Nc3ccccc3)n2)nnc1-c1cccnc1` to `O=S(=O)(c1ccc(F)cc1)N1CCC(N2CCCCCC2)CC1`, the z-score rises from -0.897 to -0.132.

In the case of `Fc1ccc(SCCc2ccncc2)cc1`, the z-score is reported as 0.0681 and -0.354.
